Some of the results follow. Sequences were assembled here from the parent chain. Inactive controls read about 0.05.
B1: TEV protease; numbered along this chain (parent)
chain: MGESLFKGPRDYNPISSSICHLTNESDGHTTSLYGIGFGPFIITNKHLFRRNNGTLVVQSLHGVFKVKDTTTLQQHLVDGRDMIIIRMPKDFPPFPQKLKFREPQREERICLVTTNFQTKSMSSMVSDTSCTFPSGDGIFWKHWIQTKDGQCGSPLVSTRDGFIVGIHSASNFTNTNNYFTSVPKNFMELLTNQEAQQWVSGWRLNADSVLWGGHKVFMVKPEEPFQPVKEATQL

Variants of: B1
Assay: raw area under fraction-flipped curve 0-4 h after induction (AUC4h, not background-subtracted), DNA-recorder readout of cleavage of the substrate (dimensionless); higher = more cleavage of the substrate by the protease variant
Conditions: temperature: 34 °C; time window: 0-4 h after rhamnose induction
Description: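 In vivo DNA recorder in E. coli TOP10(DE3) ΔrhaA at 34 °C. Each TEVp single-site mutant (parent TEVp 0) is paired with a single-site variant of the 7-mer TEVs (canonical ENLYFQ|S). The substrate sits between flexible linkers in a Bxb1-sfGFP-TEVs-SsrA fusion, so cleavage stabilises Bxb1 and speeds flipping of a recombination array, read by NGS. The value is the raw area under the fraction-flipped curve over 0-4 h after rhamnose induction (AUC4h), with ≥20 reads per time point. It is not background-subtracted; inactive controls average about 0.047.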
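Further: Bxb1 expression induced with 0.2% (w/v) L-rhamnose at OD600 near 0.5, cultures sampled hourly, flipped fraction per protease–substrate barcode pair counted by paired-end Illumina sequencing.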

V113C
area with substrate EALYFQS: 0.102
area with substrate ECLYFQS: 0.0812
area with substrate EDLYFQS: 0.115
area with substrate EELYFQS: 0.0783
area with substrate EILYFQS: 0.0974
area with substrate EKLYFQS: 0.111
area with substrate ELLYFQS: 0.113
area with substrate EMLYFQS: 0.106
area with substrate EQLYFQS: 0.125
area with substrate ETLYFQS: 0.113
area with substrate EVLYFQS: 0.0738
area with substrate EWLYFQS: 0.129
area with substrate EYLYFQS: 0.112

V113L
area with substrate EALYFQS: 0.108
area with substrate ECLYFQS: 0.11
area with substrate EDLYFQS: 0.118
area with substrate EELYFQS: 0.131
area with substrate EGLYFQS: 0.0922
area with substrate EHLYFQS: 0.0844
area with substrate EILYFQS: 0.0713
area with substrate EKLYFQS: 0.114
area with substrate ELLYFQS: 0.0937
area with substrate EMLYFQS: 0.131
area with substrate EPLYFQS: 0.147
area with substrate EQLYFQS: 0.109
area with substrate ERLYFQS: 0.116
area with substrate ESLYFQS: 0.103
area with substrate ETLYFQS: 0.127
area with substrate EVLYFQS: 0.0902
area with substrate EWLYFQS: 0.103
area with substrate EYLYFQS: 0.13

V113H
area with substrate EALYFQS: 0.106
area with substrate ECLYFQS: 0.115
area with substrate EDLYFQS: 0.121
area with substrate EELYFQS: 0.0814
area with substrate EFLYFQS: 0.0931
area with substrate EGLYFQS: 0.0936
area with substrate EHLYFQS: 0.126
area with substrate EILYFQS: 0.0782
area with substrate EKLYFQS: 0.114
area with substrate ELLYFQS: 0.0906
area with substrate EPLYFQS: 0.102
area with substrate EQLYFQS: 0.151
area with substrate ERLYFQS: 0.0953
area with substrate ESLYFQS: 0.129
area with substrate EVLYFQS: 0.0789
area with substrate EWLYFQS: 0.0729

V113D
area with substrate EALYFQS: 0.0569
area with substrate ECLYFQS: 0.0652
area with substrate EDLYFQS: 0.0531
area with substrate EELYFQS: 0.0551
area with substrate EHLYFQS: 0.0478
area with substrate EILYFQS: 0.045
area with substrate EKLYFQS: 0.0547
area with substrate ELLYFQS: 0.056
area with substrate EPLYFQS: 0.0575
area with substrate EQLYFQS: 0.057
area with substrate ERLYFQS: 0.0629
area with substrate ESLYFQS: 0.0535
area with substrate EVLYFQS: 0.0585
area with substrate EWLYFQS: 0.0469
area with substrate EYLYFQS: 0.047

T129P
area with substrate EALYFQS: 0.112
area with substrate ECLYFQS: 0.0928
area with substrate EDLYFQS: 0.087
area with substrate EELYFQS: 0.0918
area with substrate EGLYFQS: 0.0877
area with substrate EHLYFQS: 0.0859
area with substrate EILYFQS: 0.0803
area with substrate EKLYFQS: 0.0672
area with substrate ELLYFQS: 0.0891
area with substrate EMLYFQS: 0.139
area with substrate EQLYFQS: 0.104
area with substrate ERLYFQS: 0.11
area with substrate ESLYFQS: 0.101
area with substrate EVLYFQS: 0.0855
area with substrate EWLYFQS: 0.0979
area with substrate EYLYFQS: 0.0856

I145C
area with substrate EALYFQS: 0.135
area with substrate ECLYFQS: 0.137
area with substrate EDLYFQS: 0.178
area with substrate EFLYFQS: 0.109
area with substrate EGLYFQS: 0.122
area with substrate EHLYFQS: 0.171
area with substrate EILYFQS: 0.144
area with substrate EMLYFQS: 0.15
area with substrate EPLYFQS: 0.14
area with substrate ERLYFQS: 0.129
area with substrate ESLYFQS: 0.135
area with substrate EYLYFQS: 0.135

M122K
area with substrate EALYFQS: 0.129
area with substrate ECLYFQS: 0.0554
area with substrate EDLYFQS: 0.119
area with substrate EFLYFQS: 0.126
area with substrate EGLYFQS: 0.0767
area with substrate EILYFQS: 0.0871
area with substrate EKLYFQS: 0.109
area with substrate EQLYFQS: 0.114
area with substrate ESLYFQS: 0.0935

M122P
area with substrate EALYFQS: 0.115
area with substrate ECLYFQS: 0.104
area with substrate EDLYFQS: 0.113
area with substrate EFLYFQS: 0.116
area with substrate EHLYFQS: 0.117
area with substrate EILYFQS: 0.0989
area with substrate EKLYFQS: 0.121
area with substrate EMLYFQS: 0.136
area with substrate EPLYFQS: 0.118
area with substrate EQLYFQS: 0.131
area with substrate ERLYFQS: 0.121
area with substrate ESLYFQS: 0.106
area with substrate EVLYFQS: 0.0998
area with substrate EWLYFQS: 0.102

M122Y
area with substrate EALYFQS: 0.113
area with substrate ECLYFQS: 0.107
area with substrate EDLYFQS: 0.135
area with substrate EELYFQS: 0.115
area with substrate EFLYFQS: 0.105
area with substrate EHLYFQS: 0.106
area with substrate EILYFQS: 0.0928
area with substrate EKLYFQS: 0.125
area with substrate ELLYFQS: 0.0749
area with substrate EMLYFQS: 0.0953
area with substrate EPLYFQS: 0.127
area with substrate EQLYFQS: 0.117
area with substrate ERLYFQS: 0.114
area with substrate ESLYFQS: 0.0875
area with substrate ETLYFQS: 0.115
area with substrate EVLYFQS: 0.0987

S121A
area with substrate EALYFQS: 0.104
area with substrate ECLYFQS: 0.109
area with substrate EELYFQS: 0.115
area with substrate EFLYFQS: 0.0503
area with substrate EHLYFQS: 0.0998
area with substrate EILYFQS: 0.103
area with substrate EKLYFQS: 0.154
area with substrate EQLYFQS: 0.121
area with substrate ERLYFQS: 0.16
area with substrate EVLYFQS: 0.0981
area with substrate EYLYFQS: 0.0996

S121E
area with substrate EALYFQS: 0.101
area with substrate ECLYFQS: 0.0975
area with substrate EELYFQS: 0.125
area with substrate EGLYFQS: 0.0917
area with substrate EILYFQS: 0.0905
area with substrate EPLYFQS: 0.0664
area with substrate EQLYFQS: 0.137
area with substrate EWLYFQS: 0.0951

S121Y
area with substrate EALYFQS: 0.126
area with substrate ECLYFQS: 0.132
area with substrate EELYFQS: 0.125
area with substrate EGLYFQS: 0.0995
area with substrate EMLYFQS: 0.106
area with substrate EPLYFQS: 0.111
area with substrate ESLYFQS: 0.128
area with substrate EVLYFQS: 0.0782

N116A
area with substrate EALYFQS: 0.115
area with substrate ECLYFQS: 0.0925
area with substrate EDLYFQS: 0.0781
area with substrate EELYFQS: 0.115
area with substrate EGLYFQS: 0.145
area with substrate EHLYFQS: 0.106
area with substrate EILYFQS: 0.0942
area with substrate EKLYFQS: 0.11
area with substrate EMLYFQS: 0.131
area with substrate EPLYFQS: 0.106
area with substrate EQLYFQS: 0.108
area with substrate ESLYFQS: 0.0983
area with substrate EVLYFQS: 0.0491

From the supplement of paper PMC12217912
